Out of some 410,000 compounds screened, about 310 (0.076%) were called active. The shares of active, inactive and inconclusive entries below differ from those in the screen. Calls come from the whole dose curve; as a rule, active = well fitted curve in the direction sought with a large enough effect; inconclusive = small, poorly fitted or top-dose-only effect; inactive = flat fitted curve, though single readings scatter. Potencies beside an inconclusive call are fits to weak or partial responses and may not hold up.
Target: DNA dC->dU-editing enzyme APOBEC-3G (Homo sapiens) (UniProt Q9HC16)
Sequence of UniProt Q9HC16 (Q9HC16 whole entry, looked up): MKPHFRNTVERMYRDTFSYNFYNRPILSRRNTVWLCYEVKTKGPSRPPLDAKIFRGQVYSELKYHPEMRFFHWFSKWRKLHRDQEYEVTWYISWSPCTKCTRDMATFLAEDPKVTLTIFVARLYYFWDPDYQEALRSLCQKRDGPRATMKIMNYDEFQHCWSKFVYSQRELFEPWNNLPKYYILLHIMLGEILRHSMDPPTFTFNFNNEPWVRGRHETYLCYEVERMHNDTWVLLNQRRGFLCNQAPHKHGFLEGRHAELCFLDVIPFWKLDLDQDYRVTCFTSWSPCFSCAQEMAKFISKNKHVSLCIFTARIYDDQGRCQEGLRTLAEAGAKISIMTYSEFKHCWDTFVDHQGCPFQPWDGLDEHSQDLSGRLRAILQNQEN
Assay: qHTS for Inhibitors of Vif-A3G Interactions: qHTS; note: nearly all actives have a fitted effect of over 60% in size
Settings: HeLa A3G-eYFP + Vif (tagged APOBEC3G with the HIV-1 protein that degrades it), YFP fluorescence, overnight; series mostly up to 46.1 µM
Outline: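 HeLa cells stably expressing Vif and C-terminally eYFP-tagged A3G, seeded overnight at 37 deg C, then exposed to compound by pintool overnight at 37 deg C. Rise in yellow fluorescence (Ex 488/Em 500-530, Acumen) marks blocked Vif-driven A3G degradation.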
Potency is the fitted concentration of half-maximal effect; tags give direction and shape of the fitted curve.

Row | Structure (SMILES) | Potency
1 | CC1=NNC(=O)/C1=C\c1cn(-c2ccccc2)nc1-c1ccc(F)cc1 | inconclusive: 7.08 µM [inhibitor, partial curve]
2 | COc1ccccc1N1CCN(C(=O)c2nc(SC)ncc2Cl)CC1 | inconclusive: 1.26 µM [inhibitor, full curve, poor fit]
3 | CC(Oc1ccc(F)cc1)C(=O)N1CCC(c2nc3ccccc3s2)CC1 (stereo not drawn) | inactive
4 | COc1ccc(-n2nnnc2-c2ccccc2)cc1 | inconclusive: 2.24 µM [inhibitor, full curve, poor fit]
5 | CC1(C)CC(=O)C=C(c2ccc(-c3ccc4[nH]ccc4c3)cc2)C1=O | inconclusive: 35.5 µM [inhibitor, single point]
6 | N#CC1=C(N)C2=CCCC[C@H]2[C@H](c2cccc(F)c2)C1(C#N)C#N | inconclusive: 31.6 µM [inhibitor, single point]
7 | CCn1c2ccccc2c2cc(NC(=O)CSc3nnc(-c4cccc(F)c4)o3)ccc21 | inconclusive: 5.62 µM [inhibitor, full curve]
8 | Cc1ccc(NC(=O)CN2C(=O)NC(C)(c3ccc(Cl)cc3)C2=O)cc1S(=O)(=O)N1CCOCC1 (stereo not drawn) | inconclusive: 10 µM [inhibitor, partial curve]
9 | Cn1ccnc1CN1CCCCC1C(=O)Nc1ccc(Oc2cccnc2)cc1 (stereo not drawn) | inconclusive: 25.1 µM [inhibitor, single point]
10 | C/C(Cn1nc([N+](=O)[O-])cc1C)=N\NC(=O)COc1c(Cl)cc(Cl)cc1Cl | inconclusive: 25.1 µM [inhibitor, partial curve, poor fit]
11 | C/C(=N\Nc1cc(-c2ccccc2)nc(-c2ccccc2)n1)c1ccc(O)c(C)c1 | inactive
12 | Cc1ccc(S(=O)(=O)Nc2ccc3ccccc3c2[N+](=O)[O-])cc1 | inconclusive: 35.5 µM [inhibitor, partial curve, poor fit]
13 | N#Cc1ccccc1Cn1c(=O)n(CCCC(=O)NCc2ccc3c(c2)OCO3)c(=O)c2sccc21 | inactive
14 | Nc1cc2nc3ccccc3oc-2cc1=O | inconclusive: 17.8 µM [inhibitor, partial curve, poor fit]
15 | CCOc1ccccc1CN1CCC(N2CCOCC2)CC1 | inactive
16 | CCSc1nc2ccccc2n1C(=O)/C=C/c1ccc(OC)c(OC)c1 | inconclusive: 7.94 µM [inhibitor, partial curve]
17 | CC(C)C(=O)Nc1nc2c(ncn2[C@H]2CC(O)[C@@H](CO)O2)c(=O)[nH]1 (stereo partly drawn) | inactive
18 | COc1ccc(NS(=O)(=O)c2cc(NC(=O)c3sccc3C)ccc2N2CCOCC2)cc1 | inconclusive: 7.08 µM [inhibitor, partial curve, poor fit]
